By Kd is commonly meant the concentration at which binding is half-saturated.

Assay [1] concerns the target T1, human IL-2Rα, polyhistidine-tagged (human, UniProt P01589 22-213, limits assumed).
T1 construct: Used as the analyte in SPR; also called IL2-Ra; CD25; not shown: polyhistidine tag
T1 sequence (looked up): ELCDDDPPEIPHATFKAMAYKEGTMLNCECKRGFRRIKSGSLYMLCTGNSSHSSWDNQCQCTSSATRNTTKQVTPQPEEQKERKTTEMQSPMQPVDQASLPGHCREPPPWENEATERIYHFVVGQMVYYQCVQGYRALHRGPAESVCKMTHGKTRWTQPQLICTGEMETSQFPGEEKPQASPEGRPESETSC
The assay can be described thus: SPR, Biacore T200; IL-2 Fc fusion captured on anti-human IgG Fc surface, His-tagged receptor as analyte. The procedure:
(§1) A surface plasmon resonance (SPR) assay on a Biacore T200 (Cytiva) instrument was used to determine the binding affinities of IL-2 muteins against polyhistidine-tagged IL-2 receptors. Biacore T200 Evaluation Software was used to fit each titration series to a 1:1 binding model or steady state affinity. The association rate constant (kₒₙ, M⁻¹ s⁻¹) and dissociation rate constant (koff, s⁻¹) were determined for each set of titrations and used to calculate the dissociation constant, KD=koff/kₒₙ, of each IL-2 mutein against each receptor.
(§2) To measure the affinity of the IL-2 Fc muteins and the WT-IL-2 Fc fusion control for IL-2 receptors, the IL-2 Fc fusion was captured on an anti-human IgG Fc antibody surface followed by the IL-2 receptor as analyte. Exemplary IL-2 muteins 86BCH, 43BGO, 44BGO, 47BJO, 48BJO, 49BJO, 65BJO, 44BJP, 45BJP, 46BJP, and 47BJP are monovalent, whereas 54BGO is a bivalent version of 43BGO, 48BMP is a bivalent version of 49BJO, and 21BMT is a bivalent version of 65BJO. 86BCH contains a T to A substitution corresponding to position 3 and a C to S substitution corresponding to position 125 of wild type human IL-2 (SEQ ID NO:39) and was used as a control. The other exemplary IL-2 muteins all contain the same T to A and C to S substitutions, corresponding to positions 3 and 125 of wild type human IL-2, respectively. The positions of such substitutions are according to wild type human IL-2 amino acid sequence (SEQ ID NO:39).
Background: In SPR one partner is held on a chip, and binding of the other changes the refractive index at the surface.

Assay [2] deals with T2, human IL-2Rβ, polyhistidine-tagged (human, UniProt P14784 27-239).
T2 construct: Used as the analyte in SPR; also called IL2-RP; CD122; not shown: polyhistidine tag
T2 sequence (looked up): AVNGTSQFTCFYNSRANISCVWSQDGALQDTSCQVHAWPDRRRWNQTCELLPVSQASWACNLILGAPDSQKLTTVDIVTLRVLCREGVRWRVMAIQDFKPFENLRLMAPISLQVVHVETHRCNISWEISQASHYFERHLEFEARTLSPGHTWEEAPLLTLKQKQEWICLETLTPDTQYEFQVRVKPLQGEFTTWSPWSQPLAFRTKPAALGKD
Described as above. The procedure:
as §1, §2

B1: 48BMP (bivalent) (Fc fusion)
chain: [letters of human IgG1 Fc with L234A L235A D265S (EU numbers) omitted]GGGGSGGGGSPASSSTKKTQLQLEHLLLNLQMILNGINNYKNPKLTRMLTFKFYMPKKATELKHLQCLEEELKPLESALNLAPSKNFHLRPRDLISNINVIVLELKGSETTFMCEYADETATIVEFLNRWITFSQSIISTLT
notes: Bivalent homodimer; IL-2 T3A D20N E68S V69A Q74P C125S; also called bivalent version of 49BJO
On to B1, for which, in assay [1], binding was put at a Kd of 9.8 nM. In addition, the binding result in assay [2] was “no binding (tested: 3 µM)”.

B2: 21BMT (bivalent) (Fc fusion)
chain: [letters of human IgG1 Fc with L234A L235A D265S (EU numbers) omitted]GGGGSGGGGSPASSSTKKTQLQLEHLLLNLQMILNGINNYKNPKLTRMLTFKFYMPKKATELKHLQCLEEELKPLESVLNLAPSKNFHLRPRDLISNINVIVLELKGSETTFMCEYADETATIVEFLNRWITFSQSIISTLT
notes: Bivalent homodimer; IL-2 T3A D20N E68S Q74P C125S; also called bivalent version of 65BJO
B2 had a Kd in assay [1] of 97 nM. The binding result in assay [2] is recorded as “no binding (tested: 3 µM)”.

B3: 54BGO (bivalent) (Fc fusion)
chain: [letters of human IgG1 Fc with L234A L235A D265S (EU numbers) omitted]GGGGSGGGGSPASSSTKKTQLQLEHLLLNLQMILNGINNYKNPKLTRMLTFKFYMPKKATELKHLQCLEEELKPLEEALNLAPSKNFHLRPRDLISNINVIVLELKGSETTFMCEYADETATIVEFLNRWITFSQSIISTLT
notes: also called bivalent version of 43BGO
For B3, the dissociation constant Kd in assay [1] was 1.9 nM. The binding result in assay [2] is given as “no binding (tested: 3 µM)”.
